# Measured values taken from PubChem BioAssay AID1452 (National Center for Advancing Translational Sciences (NCATS), 2008).
# Screen size: about 150,000 compounds; about 190 (0.13%) were called active. The inconclusive results got no clear call from the source; some entries with a clear call stand among them for comparison. The call rests on the fitted dose curve; in most records, active means well fitted inhibition curve with a large enough effect; inconclusive means small, poorly fitted or top-dose-only effect; inactive means flat fitted curve, though single readings scatter. Potencies of inconclusive entries are doubtful fits and often do not repeat.
# Biological target: Polyunsaturated fatty acid lipoxygenase ALOX12 (Homo sapiens) (UniProt P18054)
# Assay: qHTS Assay for Inhibitors of 12-hLO (12-human lipoxygenase); further: nearly all actives have a fitted effect of over 55% in size
# Conditions: purified 12-hLO, xylenol orange hydroperoxide absorbance; series mostly up to 57.1 µM
# In short: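 Purified human 12hLO (150 nM), preincubated 15 min with compound, then 40 uM arachidonic acid for 30 min, room temperature, Hepes pH 7.0 with 0.01% Triton X-100. Hydroperoxide detected by ferrous iron/xylenol orange; 573/405 nm absorbance ratio gives reaction progress.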
# On the % scale 0 is the no-effect control and ±100 the full control effect; potency means the concentration at half of the fitted maximal effect; tags describe the fitted curve by direction and shape.
# Chain of UniProt P18054 (P18054 whole entry, looked up): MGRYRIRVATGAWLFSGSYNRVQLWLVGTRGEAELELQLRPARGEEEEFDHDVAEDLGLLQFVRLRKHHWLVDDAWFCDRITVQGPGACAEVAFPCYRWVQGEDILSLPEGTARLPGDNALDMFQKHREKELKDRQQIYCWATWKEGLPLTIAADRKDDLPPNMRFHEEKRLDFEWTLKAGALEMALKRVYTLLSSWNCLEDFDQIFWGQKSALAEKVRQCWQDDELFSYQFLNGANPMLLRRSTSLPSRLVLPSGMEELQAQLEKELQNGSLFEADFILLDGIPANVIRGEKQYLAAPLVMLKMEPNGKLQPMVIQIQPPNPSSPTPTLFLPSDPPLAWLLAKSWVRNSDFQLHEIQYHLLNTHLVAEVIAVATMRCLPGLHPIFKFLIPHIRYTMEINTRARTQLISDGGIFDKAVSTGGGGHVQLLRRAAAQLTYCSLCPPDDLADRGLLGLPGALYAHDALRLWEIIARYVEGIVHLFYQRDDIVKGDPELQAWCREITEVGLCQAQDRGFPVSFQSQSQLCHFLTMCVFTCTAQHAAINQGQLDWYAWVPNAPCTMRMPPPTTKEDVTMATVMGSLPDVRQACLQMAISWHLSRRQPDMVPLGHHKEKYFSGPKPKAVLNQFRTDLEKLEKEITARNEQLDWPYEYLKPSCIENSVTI
SMILES,Potency,"activity change, negative = inhibition"
O=C(/C=C/c1ccc(O)cc1)c1ccccc1O,"inconclusive: 10 µM [inhibitor, partial curve]",–
CNc1oc(-c2ccc(Cl)cc2)nc1P(=O)(c1ccccc1)c1ccccc1,"inconclusive: 14.1 µM [inhibitor, partial curve]",–
O=C(Nc1cccc2[nH]ncc12)c1ccc(F)cc1,inactive,–
O=[N+]([O-])c1ccc(Nc2ccc(F)cc2)nc1,"inconclusive: 4.47 µM [inhibitor, partial curve]",–
Cc1ccc(-c2[nH]ncc2/C=N/n2c(COc3ccccc3C)nc3ccccc3c2=O)cc1,inactive,–
O=C(NC(=S)NCC1CCCO1)c1ccc(Cl)cc1 (centres undefined),"inconclusive: 25.1 µM [inhibitor, partial curve]",–
Cc1cccc(NC(=O)C2CC(O)CN2C(=O)OCc2ccccc2)c1 (centres undefined),inactive,–
O=C(Nc1c(C(=O)Nc2cccc(F)c2)oc2ccccc12)c1ccc2c(c1)OCO2,inactive,–
Cc1sc2c(c1C)CN(Cc1ccncc1)CN2C(=O)c1ccco1,"inconclusive: 6.31 µM [inhibitor, single point]",–
Oc1ccccc1C1Nc2cccc3cccc(c23)N1,"inconclusive: 3.16 µM [inhibitor, partial curve, poor fit]",–
N#CC1=C(N)SC(N)=C(C#N)C1CCC1CCCCC1,"inconclusive: 22.4 µM [inhibitor, single point]",–
N#Cc1c(Nc2ccc(F)cc2)sc(C(=O)c2ccc(F)cc2)c1N,"inconclusive: 22.4 µM [inhibitor, single point]",–
O=C(Cc1ccc(Br)cc1)N1CCN(c2ccccc2O)CC1,"inconclusive: 7.08 µM [inhibitor, full curve]",–
Oc1ccc(N=Cc2ccc(-c3cccs3)s2)cc1,"inconclusive: 12.6 µM [inhibitor, partial curve]",–
O=C(CNCCC1=CCCCC1)Nc1ccccc1N1CCCCC1,"inconclusive: 17.8 µM [inhibitor, single point]",–
Cc1ccc(O)c(C(=O)c2cnc3c(c2)CN(CCC(C)C)C(=O)N3)c1,inactive,–
Oc1ccc2ccccc2c1C=Nc1ccc(N2CCOCC2)cc1,"inconclusive: 39.8 µM [inhibitor, single point]",–
Cc1cccc(COCC(Cc2ccccc2)N2CCN(C(=O)c3ccc(C(F)(F)F)cc3)CCC2=O)c1 (centres undefined),inactive,–
Cc1cc(Cl)cc(Cl)c1OCC(=O)NCc1ccco1,"inconclusive: 22.4 µM [inhibitor, partial curve]",–
Cc1ccc(-c2cc(C(=O)Nc3nccs3)c3ccccc3n2)o1,"inconclusive: 28.2 µM [inhibitor, single point]",–
COc1ccc(C(=O)Nc2ccccc2C(=O)N/N=C/c2ccc(O)c(OC)c2)cc1,"inconclusive: 15.8 µM [inhibitor, partial curve]",–
COc1ccc(-c2ccc(/C=N/N3C(=O)C4C5C=CC(C6CC56)C4C3=O)o2)c([N+](=O)[O-])c1 (centres undefined),inactive,–
O=C(CN1C(=O)CCC1=O)Nc1ccc(Br)cc1,active: 5.62 µM,–
Cc1cccc(NC(=S)NNc2ncc(C(F)(F)F)cc2Cl)c1,inactive,–
O=c1oc2ccccc2nc1/C=C(O)/C=C/c1ccc(F)cc1,"inconclusive: 12.6 µM [inhibitor, partial curve]",–

SMILES,Potency,"activity change, negative = inhibition"
COC(=O)C1=C(O)/C(=C\c2ccc(CNS(=O)(=O)c3ccc(Cl)cc3)o2)N=C1C,"inconclusive: 31.6 µM [inhibitor, single point]",–
CCc1ccc(N2CSC3=C(C#N)C(c4cccs4)CC(=O)N3C2)cc1 (centres undefined),"inconclusive: 15.8 µM [inhibitor, partial curve]",–
Cc1ccc(S(=O)(=O)/N=C2/C=C(Sc3ncn[nH]3)C(=O)c3ccccc32)c(C)c1,"inconclusive: 14.1 µM [inhibitor, partial curve]",–
CC1(C)CC(=O)C(C(c2ccncc2)C2C(=O)CC(C)(C)CC2=O)C(=O)C1,inactive,–
Cc1ccc(N=c2ssnc2Cl)cc1,active: 28.2 µM,–
N#CCCN1CCN(C(=S)c2ccc(-c3ccc(Cl)cc3)o2)CC1,"inconclusive: 28.2 µM [inhibitor, partial curve]",–
Cc1ccc(-n2nc(-c3ccco3)cc2C(=O)NCc2cccnc2)cc1,"inconclusive: 25.1 µM [inhibitor, partial curve]",–
COc1ccc(-c2nc(NC(=O)c3n[nH]c(=O)c4ccccc34)sc2C)cc1,inactive,–
S=c1[nH]nc([C@@H]2C[C@H]2c2ccccc2)n1-c1ccccc1,inactive,–
Cc1ccc(C)n1-c1nc(=S)[nH][nH]1,"inconclusive: 35.5 µM [inhibitor, single point]",–
NNc1nc2ccc(Cl)cc2s1,"inconclusive: 28.2 µM [inhibitor, single point]",–
CC[C@H](C)C(=O)O[C@H]1C[C@H](O)C=C2C=C[C@H](C)[C@H](CC[C@@H](O)C[C@@H](O)CC(=O)O)[C@H]21,inactive,–
Oc1ccc(CNc2ccccc2)c2cccnc12,"inconclusive: 12.6 µM [inhibitor, partial curve]",–
COc1ccc(NC(=O)N2c3ccc(OC)cc3C(C)=CC2(C)C)cc1,"inconclusive: 35.5 µM [inhibitor, single point]",–
COc1cccc(Oc2cn[nH]c2-c2ccc(OC)cc2O)c1,"inconclusive: 11.2 µM [inhibitor, partial curve]",–
O=C1C(O)=C(O)C(=O)C(O)=C1O,"inconclusive: 25.1 µM [inhibitor, single point]",–
Cc1cccc(NC(=O)N[C@@H](C)C(=O)O)c1,inactive,–
On1onc2c3cc(-c4ccccc4)nc3ccc21,"inconclusive: 39.8 µM [inhibitor, single point]",–
Cc1ccc(C(=O)CNc2ccc(Br)cc2)cc1,inactive,–
O=C1CC(Nc2ccc(N3CCOCC3)cc2)C(=O)N1c1ccccc1F (centres undefined),"inconclusive: 17.8 µM [inhibitor, partial curve]",–
COc1ccccc1NC(=O)CN(c1ccc(C)cc1)S(=O)(=O)c1c(C)n[nH]c1C,"inconclusive: 20 µM [inhibitor, partial curve]",–
Cc1cc2c(c(=O)n1Cc1ccco1)C(c1cccnc1)C(C#N)=C(N)O2 (centres undefined),inactive,–
CCOC(=O)c1ccc(NC(=O)COC)cc1,inactive,–
CC(C)(C)Nc1oc(-c2ccccc2)nc1-c1ccccc1F,inactive,–
CC[C@@H]1Cc2cc(O)ccc2C2=C1c1ccc(O)cc1C[C@H]2CC,"inconclusive: 15.8 µM [inhibitor, partial curve]",–

SMILES,Potency,"activity change, negative = inhibition"
CC1(C)Cc2c(C#N)c(N)sc(=S)c2CS1,"inconclusive: 20 µM [inhibitor, partial curve]",–
COc1cccc(C(=O)/C=C/Nc2ccc(S(=O)(=O)Nc3cccc(C(C)=O)c3)cc2)c1,"inconclusive: 31.6 µM [inhibitor, single point]",–
Fc1ccc(NC(=S)NCCc2ccc(Cl)cc2)cc1,"inconclusive: 31.6 µM [inhibitor, single point]",–
Cc1ccc(-n2ncc3c(NCc4ccco4)ncnc32)c(C)c1,inactive,–
O=C(CSc1nc2ccccc2c2ccccc12)c1ccccc1,–,inactive: 1.38% [at 11.4 µM]
COC(=O)c1ccc(CCc2cc(O)ccc2O)cc1,active: 3.55 µM,–
COc1ccc(-c2cc(=O)oc3cc(OCC(C)=O)ccc23)cc1,inactive,–
Oc1cc(O)cc(/C=C/c2ccc(O)c(O)c2)c1,"inconclusive: 4.47 µM [inhibitor, full curve]",–
COc1ccc(/C=N/S(=O)(=O)CCc2ccccc2)c(OC)c1,inactive,–
Cn1ncc2cc(NC(=S)NC(=O)c3ccccc3)ccc21,"inconclusive: 25.1 µM [inhibitor, single point]",–
Cc1nc(N=Nc2cc(S(=O)(=O)O)c3cc([N+](=O)[O-])cc(S(=O)(=O)O)c3c2)c(COP(=O)(O)O)c(C=O)c1O,"inconclusive: 25.1 µM [inhibitor, partial curve]",–
O=C(NNC(=O)C1CC1c1ccccc1)Nc1ccccc1 (centres undefined),inactive,–
CCCCCCCCCCC/C=C\C/C=C\CCCC(=O)O,inactive,–
CCN1C(=O)CC(N2CCN(c3ccc(Cl)cc3)CC2)C1=O (centres undefined),inactive,–
Cc1ccc(-c2csc3nc(C)n(-n4c(C)ccc4C)c(=O)c23)o1,"inconclusive: 35.5 µM [inhibitor, single point]",–
C/C(=N/NC(=S)Nc1ccccc1)c1ccc2c(c1)OCO2,"inconclusive: 22.4 µM [inhibitor, single point]",–
Oc1ccc(Cl)cc1-c1cc(-c2ccco2)[nH]n1,"inconclusive: 17.8 µM [inhibitor, single point]",–
O=C(N/C(=C/c1cccc(Br)c1)c1nc(=S)[nH][nH]1)c1ccccc1,"inconclusive: 39.8 µM [inhibitor, single point]",–
Oc1c(C(c2ccccn2)N2CCOCC2)ccc2cccnc12 (centres undefined),"inconclusive: 4.47 µM [inhibitor, full curve]",–
OCCN[C@@H]1c2cc(Cl)ccc2-c2c(Cl)cc(Cl)cc21,–,inactive: 0.488% [at 11.4 µM]
CC1CCC2C(=O)N(c3ccc(C(=O)Oc4cccc5cccnc45)cc3)C(=O)C2C1 (centres undefined),inactive,–
COC(=O)c1cc(NC(=O)c2ccccc2)c(=O)oc1C/C=N\OCc1ccc(Cl)cc1Cl,"inconclusive: 14.1 µM [inhibitor, partial curve]",–
Cc1ccc(C(=O)c2c[nH]cc2-c2ccccc2)cc1,inactive,–
CCOc1cc(NC(=S)NCC2CCCO2)c(OCC)cc1NC(=O)c1ccc(OC)cc1 (centres undefined),"inconclusive: 31.6 µM [inhibitor, single point]",–
